# Experimental data reported in PMC4336329 (PLoS ONE, 2015).
# The whole screen tested about 310,000 compounds, of which about 2,200 (0.71%) showed an effect of 50% or more. The effect is printed as a negative number. The list shows a part of the results.
# Biological target: human ether-à-go-go-related gene (hERG) potassium channel (human, UniProt Q12809)
# Test: primary screen, population patch clamp on CHO cells stably expressing hERG
# Sequence of human ether-à-go-go-related gene (hERG) potassium channel (Q12809 whole entry, looked up): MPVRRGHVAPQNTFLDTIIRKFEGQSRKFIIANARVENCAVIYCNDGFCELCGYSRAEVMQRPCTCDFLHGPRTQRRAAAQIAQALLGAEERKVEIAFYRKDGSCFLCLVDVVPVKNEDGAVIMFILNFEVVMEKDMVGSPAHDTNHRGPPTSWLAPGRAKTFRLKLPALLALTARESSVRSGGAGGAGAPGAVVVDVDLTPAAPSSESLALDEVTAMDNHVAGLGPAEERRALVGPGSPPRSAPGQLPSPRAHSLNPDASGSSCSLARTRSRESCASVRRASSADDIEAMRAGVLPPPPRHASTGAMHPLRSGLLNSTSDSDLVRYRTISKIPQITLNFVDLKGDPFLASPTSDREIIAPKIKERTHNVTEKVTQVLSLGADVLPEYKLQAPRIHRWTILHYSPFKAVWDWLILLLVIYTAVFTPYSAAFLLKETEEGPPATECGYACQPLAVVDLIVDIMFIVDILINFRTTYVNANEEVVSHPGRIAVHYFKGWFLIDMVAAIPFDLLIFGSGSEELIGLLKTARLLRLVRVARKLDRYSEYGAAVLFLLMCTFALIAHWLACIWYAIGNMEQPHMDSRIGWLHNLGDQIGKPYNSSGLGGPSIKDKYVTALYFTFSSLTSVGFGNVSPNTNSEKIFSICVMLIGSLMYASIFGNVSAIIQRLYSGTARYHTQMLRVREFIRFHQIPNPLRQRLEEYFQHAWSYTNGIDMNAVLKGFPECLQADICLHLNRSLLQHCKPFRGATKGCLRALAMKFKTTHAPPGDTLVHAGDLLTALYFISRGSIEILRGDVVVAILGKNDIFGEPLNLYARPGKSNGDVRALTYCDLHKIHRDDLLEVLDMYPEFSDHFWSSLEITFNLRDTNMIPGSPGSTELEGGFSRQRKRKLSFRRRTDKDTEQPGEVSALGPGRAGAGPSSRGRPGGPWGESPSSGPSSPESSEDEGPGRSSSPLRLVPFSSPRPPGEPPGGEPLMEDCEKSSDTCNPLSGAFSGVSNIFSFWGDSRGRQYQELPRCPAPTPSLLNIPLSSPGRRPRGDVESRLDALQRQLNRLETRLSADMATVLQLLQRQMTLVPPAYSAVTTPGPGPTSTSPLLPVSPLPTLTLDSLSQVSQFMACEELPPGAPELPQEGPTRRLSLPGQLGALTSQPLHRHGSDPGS
row,Structure (SMILES),"hERG current change (%, negative = inhibition) at 1uM [%]"
1,CCN1CCN(C(=O)C2CCC(CNS(=O)(=O)c3ccccc3)CC2)CC1 (stereo not drawn),-2.27
2,O=C(C1=C[C@@H](c2ccc(C(F)(F)F)cc2)C[C@@H](OCCCCO)O1)N1CCN(Cc2ccccc2)CC1,-1.72
3,Cc1ccc(-n2c(Cn3nc(C(F)F)cc3C(F)F)n[nH]c2=S)cc1,8.89
4,CCCCNC(=O)NS(=O)(=O)c1ccc(C(=O)OC(C)C)o1,16.6
5,CCC(C)C(NS(=O)(=O)c1ccc(C)cc1)C(=O)N1CCOCCOCCOCC1 (stereo not drawn),13.3
6,COc1cccc(OC)c1OCCCOc1ccc([N+](=O)[O-])cc1Cl,17.2
7,Cc1ccccc1OCCNC(=O)c1ccccc1Sc1ccccc1C#N,11.6
8,C=CCNC(=S)N1CCN(CCN=Cc2c(C)[nH]n(-c3ccc([N+](=O)[O-])cc3)c2=O)CC1,-27.3
9,O=C(NNC(=O)c1ccc([N+](=O)[O-])o1)c1ccccc1,5.99
10,CC1(C)CN(c2cccc(C#N)c2)C1=O,15
11,Cc1ccc(Sc2ccc(CN3CCCC3)cc2[N+](=O)[O-])cc1,-3.61
12,O=C(Nc1ccccc1)c1ccco1,13.3
13,CC1CCN(CC(=O)Nc2ccc(S(=O)(=O)N3CCCC(C)C3)cc2)CC1 (stereo not drawn),10.5
14,Cc1ccc(CSc2nc3c(c(=O)[nH]2)C(c2ccncc2)C2=C(CCCC2=O)N3)cc1 (stereo not drawn),18.6
15,CCOc1cc(-c2nc3c(C)cccn3c2NCC2CCCO2)ccc1O.CNC.Cl (stereo not drawn),-11.7
16,Cc1noc(NS(=O)(=O)c2ccc(NC(=O)c3cc(=O)c4ccccc4o3)cc2)c1C,5.79
17,COc1ccc(S(=O)(=O)N2CCCC2C(=O)Nn2cnnc2)cc1 (stereo not drawn),12.6
18,CCc1ccc(-c2nc(CSCC(=O)NC3CC3)c(C)o2)cc1,1
19,COc1ccccc1C(=O)O/N=C(/C)c1ccc(N2C(=O)C3CCCCC3C2=O)cc1 (stereo not drawn),0.905
20,COCc1cc(C)nc(NCCO)c1C#N,10.6
21,O=C(/C=C/c1cccc([N+](=O)[O-])c1)NCCSCc1ccco1,3.79
22,CSc1ccc(/C=C/C(=O)OCC(=O)NC(C)C)cc1,19.3
23,CC(=O)c1ccc(N2CCN(C(=O)c3cc(-c4ccncc4)nc4ccc(Br)cc34)CC2)cc1,5.44

row,Structure (SMILES),"hERG current change (%, negative = inhibition) at 1uM [%]"
1,Cc1ccccc1NC(=O)/C(C#N)=C/c1ccsc1,1.22
2,CCC1(CC)C(=O)Nc2ccccc21,17.8
3,Cc1ccccc1N1CCN(CC(=O)Nc2ccccc2C(=O)NC2CC2)CC1,-35.4
4,Cc1ccc(NC(=O)c2ccccc2Br)cc1S(=O)(=O)N(C)C,9.95
5,COc1ccccc1NC(=O)c1ccc(S(=O)(=O)N2CCCC(C)C2)cc1 (stereo not drawn),11.1
6,NC(=O)c1ccsc1NC(=O)COc1ccccc1,-0.384
7,CC(C)C(NS(=O)(=O)c1cccc(C(F)(F)F)c1)C(=O)NCc1cccs1 (stereo not drawn),4.64
8,CC1CCc2nc(/C(C#N)=C/c3cccnc3)sc2C1 (stereo not drawn),13.3
9,CC(C)CNC(=O)c1cccc(NC(=O)C(C)Oc2ccccc2)c1 (stereo not drawn),5.08
10,C[C@@H]1CC[C@]2(O[C@@H](CCO)C[C@H](O)[C@H]2O)O1,13.6
11,CC1CC(C)(C)N2C(=O)C(=C(C#N)C#N)c3cccc1c32 (stereo not drawn),15.5
12,CC1=C(C)C(O)N(Cc2ccccc2)C1=O (stereo not drawn),15.8
13,CC(=O)Nc1ccc(O)c(-c2nc3ccccc3s2)c1,1.89
14,CCCC(=O)OCC(=O)Nc1ccccc1C#N,16
15,Cc1nn(CC(C)C(=O)N2CCN(S(=O)(=O)c3ccc(Cl)cc3)CC2)c(C)c1C (stereo not drawn),16.4
16,O=C1N/C(=C/c2ccc(N3CCCC3)cc2)C(=O)N1c1ccccc1,2.81
17,CCOC(=O)c1ccc2c(c1)nc(SCC(=O)N1CCOCC1)n2CC,16.9
18,CCOC(=O)c1ccccc1NC(=O)C1CC(=O)N(C(C)(C)C)C1 (stereo not drawn),12.2
19,O=C(N/N=C/c1ccc(N2CCOCC2)o1)c1cccc(C(F)(F)F)c1,-14.3
20,COc1ccc2[nH]c(C(=O)O)c(NS(=O)(=O)c3ccc(C)c(C)c3)c2c1,13.9
21,CCc1nc2ccccc2c(C(=O)OC2CCCCC2=O)c1C (stereo not drawn),10
22,Cc1ccc(Cn2ccc(NC(=O)c3nc4ncccn4n3)n2)cc1,4.73
